According to ChEMBL document CHEMBL4888484, “Replenishing the malaria drug discovery pipeline: Screening and hit evaluation of the MMV Hit Generation Library 1 (HGL1) against asexual blood stage Plasmodium falciparum ,using a nano luciferase reporter read-out” (2022):
The whole screen tested about 150,000 compounds, of which about 540 (0.36%) showed an effect of 50% or more. This is one part of the list.

These molecules were tested on Plasmodium falciparum (assay: Primary screen in NF54 nanoGlo assay, in single point, at 2uM, 72h; a lower Z score goes with more inhibition). Details: timepoint 72 hour.
Format: functional, Erythrocyte

Row | Structure (SMILES) | % Inhibition | Z score
1 | CCn1ncnc1-c1nccn1CCc1scnc1C | -5% | 0.96
2 | Cc1ccc(-c2noc(-c3cccn3CC(=O)N3CCCC3)n2)cc1 | 6% | -0.95
3 | O=C(c1ccc(Cl)s1)N1CCCCCCC1 | -6% | 0.81
4 | Cn1cc(Br)cc(NCC(C)(C)C)c1=O | -14% | 2.13
5 | Cc1cc(NC(=O)[C@@](C)(O)C2CCC2)nn1C(C)C | -4% | 0.68
6 | Cn1c(-c2cccc(Cl)c2)nnc1N1CC[S+]([O-])CC1 | -10% | 1.63
7 | O=C(Nc1nccs1)C1C2CCCCC21 (stereo not drawn) | -7% | 1.03
8 | CC(C#N)C(=O)NCC1CC2C=CC1CC2 (stereo not drawn) | 14% | -1.82
9 | CC(C)c1cc(C(=O)N2CC[C@]34C(=O)N(Cc5cn(nn5)CCCOc5cccc(c5)[C@H]23)c2ccccc24)on1 | 5% | -0.53
10 | CCC1CN(C(CC)C(=O)NCc2ccc(C(C)=O)c(C)n2)CCO1 (stereo not drawn) | 3% | -0.41
11 | Cc1nn(-c2ccc(F)cc2)c(C)c1S(=O)(=O)N1CCC(C(=O)N2CCN(C)CC2)CC1 | 0% | -0.04
12 | CC[C@@H](C(=O)NS(=O)(=O)CC(F)(F)F)c1ccc(F)cc1 | -16% | 1.59
13 | CCN(CCCCO)C(=O)c1ccc(-c2cnccc2N)cc1 | -3% | 0.52
14 | COCCN(C)C(=O)c1nn(C)c2c1COCC2 | 6% | -0.81
15 | Cc1cc(C(=O)N2CCOc3ccc(N(C)C)cc3C2)[nH]n1 | 4% | -0.77
16 | CC(C)c1nccc(C(=O)N[C@H]2CCOC[C@@H]2OCc2ccccc2)n1 | -3% | 0.69
17 | O=C(c1cnc2ccccc2n1)N1CCc2n[nH]cc2C1 | -3% | 0.56
18 | CNC(=O)c1cccc(NCC2(CN3CCN(C)CC3)CC2)n1 | 5% | -0.86
19 | Cc1ccc(NC(=O)C[C@H](n2ccnc2)C(F)(F)F)c(O)n1 | -10% | 1.36
20 | CCc1nc(C)c(C(=O)NCc2noc(Cc3cccs3)n2)s1 | -2% | 0.27
21 | O=C(CNC(=O)Cc1ccccc1)NCCC(=O)Nc1ccccn1 | -13% | 2.51
22 | CC(Nc1ccc2c(c1)OC1(CCCCC1)O2)C(=O)N(C)C1CCS(=O)(=O)C1 (stereo not drawn) | -34% | 3.99
23 | O=C(NCCc1ccccc1)N1CC[C@@](F)(C(=O)NCc2ccccc2)C1 | -7% | 0.9
24 | Cc1ccc(NC(=O)C2CCN(S(=O)(=O)c3ccc4c(c3)sc(=O)n4C(C)C)CC2)c(C)c1 | 5% | -0.88
